Results from PubChem BioAssay (NCI).
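Interpolation was linear, between the two tested concentrations surrounding the appropriate level; five concentrations were tested over 48 hours in 96-well plates. Abbreviation: GI50, concentration required for 50% inhibition of growth. The concentration for full growth arrest is given as TGI.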

System: NCI-H322M lung
Assay: NCI tumour cell line growth inhibition, 48 h

| Structure (SMILES) | GI50 | TGI |
| --- | --- | --- |
| CN1CCN(Cc2ccc(NC(=O)c3cncc(C#Cc4cnc5ccc(N[C@H]6CCOC6)nn45)c3)cc2C(F)(F)F)CC1 | 0.159 µM | 0.627 µM |
| COc1cccc(-c2ccc(/C=N/NC(=O)c3[nH]c4ccc(Br)cc4c3-c3ccccc3)s2)c1 | 5.02 µM | > 100 µM |
| CN1CCN(Cc2ccc(C(=O)Nc3cccc(Nc4ccc5c(O)cccc5n4)c3)cc2C(F)(F)F)CC1 | 3.23 µM | 11.6 µM |
| Cn1cc(-c2cc3nc(-c4cn(C)c5ncc(Br)cc45)cc(N)n3n2)c2ccccc21 | 10.4 µM | 45.1 µM |
